Laboratory results reported in the RNAGym collection of RNA variant scans (doi:10.7554/elife.90254).
The source gives no read counts; variants with many changes may rest on few reads.

B1: OR4K15 (parent)
chain: GUUAACGGUCAUAGGCCAUGGAAACUAGGAGCACCAUUUCGCUGCCAGUGAAGAAAUGAACAAAGAAAAUCUGGGCCAGGCAGGCAUCAAAAGAAAUAGUCUUGCGCUCAACCAGAAAGUCUGUAAUCAUUUUAAGGGUA

Variants of: B1
Test: self-cleavage, relative activity (ratio to wild type); higher = more cleavage; in vitro, sequencing; the parent is a self-cleaving ribozyme

Variant | self-cleavage
A5G A117G U120G | 1.87
A5G C6U U43C | 2.16
A5G C17U A55G G84A | 0.77
A5G C17U A69G A114G | 0.18
A5G C17U A82G | 0.74
A5G C32U A54G A69G | 1.16
A5G C34A A118G | 0
A5G C40A U133C | 0.23
A5G C40U A51G A78U | 0.6
A5G C81A A91G | 0.17
A5G C113U U122C | 0.09
A5G G7A U57C | 1.14
A5G G7U A11G A24G A56G | 0.35
A5G G14U A59G A91G | 0.52
A5G G15A A59G G75A | 0.2
A5G G15A U19A | 1.02
A5G G21C U39A U57C A60U A69G | 0.53
A5G G29A A67U | 0.48
A5G G41A U100C | 1.93
A5G G41U A52G A89U A140G | 1.09
A5G G44A A52G A59G A68G U100C | 1.67
A5G G44A A55U G75A A116G A126G | 0.04
A5G G44A U49C U102C U122C | 1.59
A5G G48A U57C | 0.88

Variant | self-cleavage
A5G G48A U132C | 1.93
A5G G48U A111G U131C G136U | 0
A5G G50A A117G U122A U127C U132A | 0.84
A5G G74A U108C A134G | 0.01
A5G U9A A51C | 1.64
A5G U9C A13G A82U A96G | 0.13
A5G U9C A55G U87A A92U | 1.06
A5G U9C A78U A89U U132C | 0.42
A5G U9C A78U A98G A110G | 0.07
A5G U9C A126U | 0.79
A5G U9C U39G G136A | 2.13
A5G U9C U139A | 0.7
A5G U9G G58U A92G A117G | 1.14
A5G U12A A62G A82G A92G A98G | 0.14
A5G U12A U19C A24G U70C | 1.44
A5G U12C A13G A51G G74A A125G | 0.12
A5G U12C A30G | 0.78
A5G U12C A52G A69G | 0.85
A5G U19A G83A G115A U122A | 0.08
A5G U19A U70C U122G | 1.01
A5G U19C A24G A90G A95U | 1.02
A5G U19C A24U U49A | 1.49
A5G U19C A30G U87C | 1.2
A5G U19C A60G A118G | 1.16

Variant | self-cleavage
A5G U19C A60G U108C U132C | 0.06
A5G U19C A68U | 1.34
A5G U19C A68U G79A | 0.11
A5G U19C U38G | 0.47
A5G U26A A27G A116U | 0.08
A5G U26A A54U | 1.18
A5G U26A A60G | 0.49
A5G U26C A56G U70A | 0.5
A5G U37C A86G | 1.01
A5G U37C G73A U103C U108C | 0.01
A5G U37C U43C A60G | 0.77
A5G U37C U87C U100C | 1.18
A5G U37C U131C | 1.4
A5G U37G A47G U124C U131C | 0.37
A5G U38A A52G | 1
A5G U38C A47G | 1.14
A5G U38C A54G A66U A96G | 0.64
A5G U38C A54U U100C U103C | 2.01
A5G U38C A60G A125G | 0.41
A5G U39A A110G A135G | 0.32
A5G U39A U108A U122C | 0.01
A5G U39C A55G | 1.49
A5G U39C A59U | 1.47
A5G U39C A89G U130C U133C | 0.75

Variant | self-cleavage
A5G U39C A92G U108C A114G | 0.05
A5G U39C A95G A135U | 1.44
A5G U39C U57C A68G A90G A135G | 1.63
A5G U43A U57C A60G A92G | 0.72
A5G U43C A51G A55G U87A | 0.97
A5G U43C A96G A116G | 1.18
A5G U43G A52G A62G U87C | 0.51
A5G U49A A62G A89G A114C | 0.05
A5G U49A A66G | 1.21
A5G U49C U87C U103G U130C | 0
A5G U57A A78G A117G U127C U130C | 0.1
A5G U57A A92G | 0.42
A5G U57C A78U | 0.33
A5G U57C A86U A89G A111G | 0
A5G U57C A98U | 1.04
A5G U72C G73U A96U U108A A129U U130C U131C | 0
A5G U87A C109G A129U | 0.01
A5G U87C A96G U127A | 1.43
A5G U87C A118G | 0.74
A5G U87C U127A | 1.74
A5G U100C A110G G138U | 0.44
A5G U100C U127C | 0.94
A5G U100G U102C | 1.34
A5G U100G U120A | 2.46

Variant | self-cleavage
A5G U102C A126G U127A | 0.91
A5G U103C A129U | 0.43
A5G U122C U127G | 2
A5G U124C A125U U127C | 0.31
A5G U124G U130C | 0.7
A5G U127A U131C U133C | 0.37
A5U A11G U19A A94G | 1.78
A5U A13G A36U U87C U130C U131C | 1.38
A5U A13U A60C U120C | 0.5
A5U A18U A27G U72A U120C | 0.19
A5U A22G U43C A68G A69G | 0.69
A5U A22U A68G A92G A96G A116G | 1.84
A5U A22U A82G A111G C113U | 0.14
A5U A22U A110G U127A | 0.43
A5U A23G C40U A47U | 0.17
A5U A24G A60C A67G U120C | 1.3
A5U A24U A33G A86G | 0.81
A5U A30G U102C U103A A116G | 0.31
A5U A33G A56G A66G A86U U97C A98U A140U | 0.04
A5U A36U U43A A110G | 0.54
A5U A51G A69G U120C | 1.24
A5U A52G A129G | 0.63
A5U A54G G83U | 0.28
A5U A55U A94U | 1.53

Variant | self-cleavage
A5U A60G A64U A89G U120G | 1.48
A5U A60G A135G | 1.38
A5U A62G U124C | 0.53
A5U A66G C101U | 0.13
A5U A68G U97C U103C | 1.12
A5U A86G A118G U122C | 0.27
A5U A86G U122C | 0.76
A5U A92G U132C | 0.18
A5U A94G U108C | 0
A5U A96U U100C | 2
A5U C6G A90G A96G U130C | 0.91
A5U C35U A60G A68G A111G U122C | 0.03
A5U C77A G115A | 0.23
A5U G14A U39C U103A C121A | 0.84
A5U G14C A63G A126G | 0.43
A5U G53U A54G A82G | 1.05
A5U U9C A24G A47G A62U A94G | 0.15
A5U U9C U37C | 2.15
A5U U9C U37C A68G A110U A117G A118G U122C | 0.49
A5U U9C U38C | 1.16
A5U U12C A13G A59G | 1.32
A5U U12C A27G | 1.33
A5U U19C A62G | 1.2
A5U U26C A96G A114U | 0.09

Variant | self-cleavage
A5U U38A A47G U132C | 0.96
A5U U39A A66G U72C U133C | 0.22
A5U U39A U108A | 0.11
A5U U43A U57G G99C | 0.25
A5U U43C A52G | 1.52
A5U U49C U72C A118G | 0.17
A5U U70C U100A A111G | 0.04
A5U U70C U132C | 1.38
A5U U72C A94G A98U | 0.6
A5U U100C U108C A118G | 0.04
A5U U103C U131A U132C | 0.89
A5U U130C U131C | 0.21
A5U U132C A140C | 1.44
C6A A22G A95G | 1.63
C6A A23G U132C | 0.93
C6A C45A A86G A111G A135U | 0.01
C6A U72C A92G | 0.04
C6A U72C U87C U130A | 0.1
C6U A18G G28U | 1.12
C6U A23G A36G C45U A59G U87A U122A | 0
C6U A23U A59G A68G | 0.65
C6U A24G A140G | 0.32
C6U A36U U43C A54G A66U | 0.55
